Test results taken from ChEMBL document CHEMBL4888484, “Replenishing the malaria drug discovery pipeline: Screening and hit evaluation of the MMV Hit Generation Library 1 (HGL1) against asexual blood stage Plasmodium falciparum ,using a nano luciferase reporter read-out” (2022).
Among all 150,000 compounds or so, about 540 (0.36%) showed an effect of 50% or more. Some of the results follow.

system: Plasmodium falciparum; experiment: Primary screen in NF54 nanoGlo assay, in single point, at 2uM, 72h; a lower Z score goes with more inhibition; type: functional, Erythrocyte; settings: timepoint 72 hour

| Structure (SMILES) | % Inhibition [%] | Z score |
| --- | --- | --- |
| COc1cc2ccc3c(CCN(C)C(=O)c4c(F)cccc4F)cc(OC)c(OC)c3c2cc1OC | 18 | -2.8 |
| CC(C)CCNS(=O)(=O)c1cc(-c2nc(-c3cccc(F)c3)no2)cs1 | -7 | 0.74 |
| Cn1nc(CN(Cc2ccccc2C(F)(F)F)C2CC2)[nH]c1=O | -12 | 1.59 |
| Cc1ccc(CNC(=O)NCc2cccc(-n3cncn3)c2)s1 | 15 | -1.85 |
| COc1ccc(CNC(=O)N2CC[C@H](Oc3ncccc3Br)C2)cc1OC | -10 | 1.93 |
| CC(NC1CC(=O)N(C2CC2c2ccccc2)C1)c1ccc(C(F)F)nc1 (centres undefined) | -10 | 1.15 |
| CC[C@H](NC(=O)c1cncc(Cl)c1)C1CC(O)C1 (some centres undefined) | -5 | 0.95 |
| COc1ccccc1N1CCN(C(=O)C2CN(C(=O)c3ccccc3)CC2c2cc(OC)c(OC)c(OC)c2)CC1 (centres undefined) | -11 | 1.75 |
| O=C(NCc1cccc(Cl)c1)OCC(F)(F)F | 2 | -0.31 |
| O=C(NCCc1cnn(-c2ccccc2)c1)C1CCCC(C(F)(F)F)C1 (centres undefined) | -3 | 0.53 |
| CC[C@H]1[C@H](NC(=O)CCn2cncn2)[C@H]2CCO[C@H]21 | -19 | 1.81 |
| O=C(c1ccc2nsnc2c1)N1CCC(n2c(=O)[nH]c3ccccc3c2=O)CC1 | -1 | 0.12 |
| O=S(=O)(Cc1ccco1)[C@H]1CCN(S(=O)(=O)Cc2cccc(Cl)c2)C1 | -7 | 1.2 |
| COc1cc(C(=O)NC2CCCCC2)cc2occc12 | 36 | -4.83 |
| CN(C)c1ccccc1N(C)CCN1CCCS1(=O)=O | -10 | 0.92 |
| O=S(=O)(Cc1c[nH]c2ccccc12)c1ccccc1 | 34 | -3.87 |
| CC(C)n1cnc2c(-c3ccccc3)cn(CC(=O)NCc3ccco3)c2c1=O | 9 | -1.25 |
| COc1ccc(OC)c(S(=O)(=O)N2CCCN(S(=O)(=O)c3ccccc3)CCC(=O)NCC2)c1 | 3 | -0.36 |
| Cc1nc(-c2ccc(Cl)c(S(=O)(=O)N3CCC(C(=O)Nc4ccccc4C)CC3)c2)no1 | -12 | 1.51 |
| CS(=O)(=O)[C@H]1CCN(S(=O)(=O)c2ccc3c(c2)OCCO3)C1 | -9 | 1.14 |
| Cc1ccsc1[C@H]1CCN(C(=O)c2nc(C(C)C)cs2)C[C@@H]1O | 8 | -1.05 |
| CC(C)n1cc(NC(=O)N(Cc2ccsc2)C2CCCC2)nn1 | -10 | 1.56 |
